This is an account of results in the supplement of paper PMC11417369.

This is one part of the list.

For the test, the system named is PfHDP1 homeodomain (GST-tagged). Put plainly: gcPBM binding intensity (ln(normalized median fluorescence intensity)); higher = stronger DNA binding. The method in brief: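 GST-tagged P. falciparum DNA-binding domains produced in E. coli were incubated for 1 h on an Agilent 4 × 180k array of primer-extended double-stranded 36-bp intergenic genomic probes with negative controls. Binding intensity is the highest Masliner-normalised natural-log median intensity across replicate spots of either probe orientation, with bound protein detected by Alexa488 anti-GST antibody at 488 nm.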
On to “TTTAATAATAATACTAGTACACATTCTTTATTATTT [XGTACX_site2671]”, for which the “gcPBM binding intensity (ln)” value was 7.01.
Under “TATATAAATAAATATACACACATATATAAATATACA [CACACA_site2982]” stands 6.42.
Under “TTTTTTTTTTTTTGCACACTTAAATTTGGAGTGTAG [CACACA_site2345]” stands 8.98; under “TAAATTTATAGACACACACACATATAAATAAATATA [CACACA_site6530]”, 7.12; under “TGAATTAAGATTTATTGTACATAATTTATACCATAT [XGTACX_site7034]”, 6.33.
Next, TTACAACATGAAAATGTGCACATATATATATATATA: 10.8; “GAAATAAATATAATATATATATATATATATATATGT [TGCATGCA_negctrl_site216]”: 7.14.
For the sequence “AAAAATAAATATATATGTACACATATGTATACAATA [XGTACX_site4692]”, the “gcPBM binding intensity (ln)” value came out at 6.25.
Consider “GGTATACACAGACATGCATGTAATTATATATAGGGA [TGCATGCA_site83]”, for which the “gcPBM binding intensity (ln)” value was 7.2.
Next, CATCATCTTTTAAAGGTGCATAATAATATTGTTAAT: 9.22; “GTCTATTATTTTTGAAGTACAAAAATTTTAGTTAAA [XGTACX_site4708]”: 6.3.
Under “ATGTTCTTTAAAACCACACACCCCCCAACCCCCCTC [CACACA_site2373]” stands 8.36; under “TGAAATTCCATAAAATGTACATATTAGTTTAATTCA [XGTACX_site4031]”, 5.95.
Consider “TCGCCCTACAATTTGTTTATATATTAAATAAAATTT [CACACA_negctrl_site883]”, for which the “gcPBM binding intensity (ln)” value was found to be 6.9.
On to “AATATATTTAATCATACACACATTTATGTACCTATA [CACACA_site1718]”, for which the “gcPBM binding intensity (ln)” value is 6.65.
Next, “AAAGCTAATATTATATGTACTTATATATTTATATAT [XGTACX_site4474]”: 6.23; “ATATAAATCTACACCGCACACAAAAACAACAAATAT [CACACA_site2506]”: 7.11.
Under “AAATAAATGAAACACACACACACAAAAAAAAAAAAC [CACACA_site2625]” stands 6.88; under “TATAATGTTAAATAATGTACATATTTTTTTTTTTTT [XGTACX_site4721]”, 6.16; under “AAGGATGATACAACTTGTACATATTTGCTTAATATA [XGTACX_site764]”, 6.59.
Under “ATATAAATATATTGCACACACAATTATTATTATTAT [CACACA_site7147]” stands 10.7; under “CATGTGCATATTAAATGTACATATATACATATATAC [XGTACX_site857]”, 10.2; under “ATATAGGTATTTAATACACACAAAACTTTCATTCCA [CACACA_site7627]”, 6.59.
As to “AACAAAATTGAAGGAACACACATACAGATATATATA [CACACA_site4264]”, the “gcPBM binding intensity (ln)” value was found to be 6.89.
In the case of “ATAGAAAAAATATACACACACTTATTAAATAAAAAT [CACACA_site7540]”, the “gcPBM binding intensity (ln)” value amounted to 6.73.
“TAATAATTAATTAATATAATATTTTTTCATAATTAT [XGTACX_negctrl_site602]”: the “gcPBM binding intensity (ln)” value turned out to be 6.12.
Turning to “GTTTTTAAGAAAAACACACACTCCTGTTATTTTATA [CACACA_site3696]”, the “gcPBM binding intensity (ln)” value stood at 6.11.
Under “TTTTTTTTTTTCGGGGGTACTAATATATTATTAATA [XGTACX_site7809]” stands 7.87.
Under “ATAAACAAAGTTAAATGTACAAAGGGGTAAAAAAAA [XGTACX_site83]” stands 6.82.
Next, “AACAAATTTTTTTTTCCTTTTTTTTTTTTACTTCAT [CACACA_negctrl_site1214]”: 5.71; “AAATAAATAATATGTAAACACACAAAAAATAAAAAT [CACACA_site8307]”: 6.77; “TTATTAACCAAACGCACATGCAAAATATATTATATA [TGCATGCA_site915]”: 8.
In the case of “TTTTTTTTTCGGAAAAGTACAAAACTTTTTTATAAT [XGTACX_site4670]”, the “gcPBM binding intensity (ln)” value was determined as 5.92.
“ACACAATTGAAATAGTGTACAAAATGTTGTTACATA [XGTACX_site8671]”: the “gcPBM binding intensity (ln)” value stood at 6.27.
On to “TATATATCAATATGCACACACAAGAAGTAATTATAA [CACACA_site7487]”, for which the “gcPBM binding intensity (ln)” value worked out at 9.74.
With “AGACTTTGTACAAACACACACATGAGCACAATATTA [CACACA_site6755]”, the “gcPBM binding intensity (ln)” value is 8.68.
Next, “TAAAAAGTATATAAGAGTACACATATTTATAAATAT [XGTACX_site3084]”: 6.76.
Under “TATTTTTATAAAAATCGTACAAGTGATCCAATTTTT [XGTACX_site4402]” stands 6.5; under “TTTTTAAAACATATCACACATATATATATATATATA [CACACA_site5991]”, 9.46.
As for “CCGTATTCAAAAAGGAGTACACAATTATATGTTATA [XGTACX_site641]”, the “gcPBM binding intensity (ln)” value was 6.42.
For “TATAATATAATTAAAAGTACTTAAAAAAGAATGAAA [XGTACX_site1157]”, the “gcPBM binding intensity (ln)” value was 6.99.
“TGTTTATATAATATTCTACACACCAACAACAAACAT [CACACA_site8087]”: the “gcPBM binding intensity (ln)” value was 7.21.
In the case of TATTTTTTTTGTTAGGTGCATTTACATTTATTTTTA, the “gcPBM binding intensity (ln)” value was found to be 9.16.
Under “TGTATGTATTTTCAATGTACATAAAAAAAAAAAAAA [XGTACX_site4397]” stands 6.71; under “AAAAATTAAAAGAAAATACACACCTGTGGGTGCTTA [CACACA_site1988]”, 5.37; under TTATATAGGCAGATGGTGCATCTATTTATAAGCAAC, 9.03.
Next, “AAAAAAAAAAGTTCTACACACACAAAAAAATATTTT [CACACA_site8725]”: 6.61; “ATATGAGAGAATAAAACACACAAAAAAAAAAAAAAA [CACACA_site2865]”: 6.35; “TAATAATCAAGTTAACGTACAAAATCATCTATAGAA [XGTACX_site5921]”: 6.69.
Turning to “GTAGCCTTTCTTTATAAAGGCAAACAAACAAAAAAT [CACACA_negctrl_site1491]”, the “gcPBM binding intensity (ln)” value was 6.79.
As to “ATTTATTATATATACACACATACATATATATATATA [CACACA_site2159]”, the “gcPBM binding intensity (ln)” value worked out at 9.1.
With “ATAACAAAATAAAACACACACACAAATGTACTTATA [CACACA_site8768]”, the “gcPBM binding intensity (ln)” value was determined as 6.58.
As for “TGCTTTTATTTCTTCACACATATGTAAAAAAAAGAA [CACACA_site5906]”, the “gcPBM binding intensity (ln)” value stood at 6.78.
Next, “AAAAAATTCTGGTACTGTACACATTTTTTTAAATTT [XGTACX_site6904]”: 6.31; “ATTATGATTTTATAGAACTGAACATTTACATTAAAT [GTGCAC_negctrl_site192]”: 6.29.
With “TGCATACTAGCCAATTGTACATAATTTTATTTTAAA [XGTACX_site513]”, the “gcPBM binding intensity (ln)” value worked out at 6.38.
Next, “AAAATAAATCTGAATGGGGTATAATATATCTTTGTT [CACACA_negctrl_site744]”: 6.39.
